# About 2,200 (0.71%) of roughly 310,000 compounds showed an effect of 50% or more. Effects have a minus sign here. The list shows a part of the results.
# Molecular target: human ether-à-go-go-related gene (hERG) potassium channel (human, UniProt Q12809)
# Experiment: primary screen, population patch clamp on CHO cells stably expressing hERG
# Sequence of human ether-à-go-go-related gene (hERG) potassium channel (Q12809 whole entry, looked up): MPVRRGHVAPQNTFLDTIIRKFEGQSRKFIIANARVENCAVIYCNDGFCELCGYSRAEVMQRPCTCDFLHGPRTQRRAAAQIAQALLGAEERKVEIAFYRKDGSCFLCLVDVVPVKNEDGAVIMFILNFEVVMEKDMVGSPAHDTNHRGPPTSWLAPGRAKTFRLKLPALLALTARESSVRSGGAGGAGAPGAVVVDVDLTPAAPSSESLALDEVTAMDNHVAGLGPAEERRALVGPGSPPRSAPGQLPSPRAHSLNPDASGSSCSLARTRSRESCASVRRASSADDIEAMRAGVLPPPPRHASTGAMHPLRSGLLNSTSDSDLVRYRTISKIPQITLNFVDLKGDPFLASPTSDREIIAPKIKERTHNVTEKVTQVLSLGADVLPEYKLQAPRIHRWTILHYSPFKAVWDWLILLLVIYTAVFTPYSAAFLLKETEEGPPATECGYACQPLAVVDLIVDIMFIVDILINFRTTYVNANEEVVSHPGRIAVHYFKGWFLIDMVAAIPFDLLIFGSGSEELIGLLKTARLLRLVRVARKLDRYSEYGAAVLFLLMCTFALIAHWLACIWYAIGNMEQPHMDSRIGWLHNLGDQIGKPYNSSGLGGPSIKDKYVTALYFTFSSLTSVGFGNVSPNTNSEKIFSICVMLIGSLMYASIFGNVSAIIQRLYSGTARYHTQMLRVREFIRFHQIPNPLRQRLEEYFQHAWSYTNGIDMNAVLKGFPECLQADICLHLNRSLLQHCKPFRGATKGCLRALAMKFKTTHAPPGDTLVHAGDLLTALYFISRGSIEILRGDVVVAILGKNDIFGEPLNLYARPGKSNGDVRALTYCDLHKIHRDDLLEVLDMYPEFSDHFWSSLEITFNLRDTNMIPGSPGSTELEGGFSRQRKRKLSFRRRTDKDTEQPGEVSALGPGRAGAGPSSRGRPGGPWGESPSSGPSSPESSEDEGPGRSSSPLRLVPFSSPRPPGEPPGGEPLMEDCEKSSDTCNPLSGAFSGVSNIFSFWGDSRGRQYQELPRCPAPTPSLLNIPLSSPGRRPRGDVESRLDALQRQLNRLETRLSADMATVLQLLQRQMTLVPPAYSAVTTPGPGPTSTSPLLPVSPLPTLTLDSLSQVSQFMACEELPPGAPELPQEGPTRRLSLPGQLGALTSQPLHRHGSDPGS
row,Structure (SMILES),"hERG current change (%, negative = inhibition) at 1uM [%]"
1,O=C(CCN1C(=O)/C(=C/c2cccs2)SC1=S)Nc1ccc(O)cc1,6.71
2,COc1ccccc1CCC(=O)Nc1cccc(S(=O)(=O)N2CCCCCC2)c1,14.1
3,CCCCCc1nc2c(=O)n(C)c3ccccc3c2o1,-2.04
4,CCC(CC)C(=O)Nc1ccc([N+](=O)[O-])cn1,12.5
5,COC(=O)c1ccccc1NC(=S)N1CCOCC1,15.4
6,NC(=O)CSc1nnc(-c2ccc3c(c2)OCO3)o1,14
7,CCOC(=O)C1=C(c2ccccc2)NC(SCC(=O)Nc2ccc(C)cc2)=C(C#N)C1c1ccco1 (stereo not shown),-8.66
8,CCOC(=O)N1CCC(N2Cc3cccc(C(=O)Nc4cccc(F)c4)c3C2=O)CC1,-36.5
9,CCCN(CC(=O)Nc1ccc(C)cc1Br)CC(=O)Nc1ccc(F)c(F)c1F,4.73
10,Cc1nnc(-c2cnn(-c3ccccc3)c2N)n1Cc1ccccc1,-4.57
11,COc1ccc(NC(=O)C(c2ccccc2)N(C)C(=O)CNC(C)=O)cc1 (stereo not shown),29
12,CN(C)CCCN(C(=O)c1ccc(S(=O)(=O)N(C)Cc2ccccc2)cc1)c1nc2c(F)cccc2s1.Cl,-12
13,O=C1c2ccccc2C(O)(c2ccccc2)N1C1CC1 (stereo not shown),-8.45
14,COc1cccc(/C=C2/SC(=S)N(CCCC(=O)Nc3ccc(O)cc3)C2=O)c1,13.5
15,O=C(NNS(=O)(=O)c1ccccc1[N+](=O)[O-])c1ccc(F)cc1,10.4
16,O=C(C[n+]1ccccc1)Nc1ccccc1C(F)(F)F.[Cl-],15.7
17,Cn1cc(C(=O)C(=O)N2CCc3ccccc32)c2ccccc21,17.4
18,CCOC(=O)c1sc2nc(C)nc(N3CCCCC3C)c2c1C (stereo not shown),-5.1
19,Cc1ccc(S(=O)(=O)N2CCOCC2)cc1C(=O)NC1CCCC1,16.7
20,CSc1ccc(/C=C/C(=O)c2ccc(NC(C)=O)cc2)cc1,5.65
21,Cc1ccc2nc(NCCCO)[nH]c2c1,15
22,c1ccc(-c2nnsc2-c2ccccc2)cc1,13.7

row,Structure (SMILES),"hERG current change (%, negative = inhibition) at 1uM [%]"
1,Oc1c(CN2CCCCC2)cc(Br)c2cccnc12,10.4
2,Cc1cc(C)nc(NC(=NCCc2c[nH]c3ccccc23)NC(=O)Nc2ccc(Cl)cc2)n1,9.67
3,S=c1[nH]nc(Cc2cccs2)n1-c1cccc2ccccc12,5.83
4,CNC[C@@H](C)NC[C@@H](Cc1ccccc1)NCCc1ccccc1,0.0148
5,O=C(N/N=C/c1cccc(Br)c1)c1ccc(Cn2cc(Br)cn2)o1,-9.02
6,Cc1cccn2c(=O)c3cc(C(=O)NC4CCCC4)c(=N)n(CCc4ccccc4)c3nc12,-33.8
7,C/C(=N\NC(=O)c1ccco1)c1ccc(C(=O)O)s1,1.99
8,COc1ccc(C2=NOC(C(=O)NC3CCCCC3)C2)cc1OC (stereo not shown),3.75
9,O=C(Nc1cccc(S(=O)(=O)NCc2ccco2)c1)c1cc(-c2ccc(F)cc2)nc2ccccc12,5.77
10,Cc1ccc(C)c2[nH]c(=O)c(CN(CCN3CCCC3)C(=O)Nc3cccc(Cl)c3)cc12,-35.6
11,COCCN(C(=O)COC(=O)C1CCC(C(C)(C)C)CC1)c1c(N)n(Cc2ccccc2)c(=O)[nH]c1=O (stereo not shown),-1.05
12,COc1ccc(S(=O)(=O)Cc2ccc(C(=O)N3CCN(C4CCCCC4)CC3)o2)cc1,-5.61
13,CCOC(=O)c1c(SCC(=O)Nc2nccs2)nc(C)c(C)c1C,11
14,COc1ccc(S(=O)(=O)N2CCOCC2)cc1NC(=O)CCNC(=O)c1ccc(Br)cc1,6.66
15,O=C(COc1ccc2c3c(c(=O)oc2c1)CCCC3)NCCCn1ccnc1,6.73
16,Br.Cc1ccc(Nc2nc(-c3c(C)nc4ccccn34)cs2)cc1,-23.5
17,CCCS(=O)(=O)NCCc1cc2c(C)ccc(C)c2[nH]c1=O,3.84
18,CCOC(=O)CSc1cn2c(n1)CCC2,14.5
19,CC(=O)N1CCCc2cc(S(=O)(=O)Nc3ccc4c(c3)OCO4)ccc21,9.76
20,O=c1c2ccccc2nc(-c2ccccc2Cl)n1O,11.5
21,CCOC(=O)C1=C(Cc2ccc(Cl)cc2)C(=O)c2ccccc2C1=O,-4.95
22,C=CCN1C(=O)c2ccccc2Sc2ccc(C(=O)N3CCC4(CC3)OCCO4)cc21,7.05

row,Structure (SMILES),"hERG current change (%, negative = inhibition) at 1uM [%]"
1,O=C(Cc1ccc(-n2c(=O)c3sccc3n(Cc3ccc(F)cc3)c2=O)cc1)NCc1ccco1,7.78
2,COC(=O)c1ccc(Cl)c(NC(=O)NC2CCCCC2)c1,13.2
3,CCOc1ccc(NC(=O)C/C(C)=N/NC(=O)COc2ccc(Br)cc2C)cc1,8.25
4,CC1CCCCN1C(=O)CN(C)S(=O)(=O)c1cccc2nsnc12 (stereo not shown),11.9
5,COCC(C)n1c(C)cc(C(=O)COC(=O)c2c(C)nn(-c3ccccc3)c2C)c1C (stereo not shown),5.13
6,CCCCN(C)Cc1c(C)[nH]c2c(ccc3ccccc32)c1=O,-56.1
7,O=C(O)c1cc(-c2ccc(Cl)cc2)n[nH]1,-0.981
8,Cc1occc1C(=O)N/N=C/C=C/c1ccccc1[N+](=O)[O-],2.1
9,O=C(CC(c1ccccc1)c1cc(Br)ccc1O)NCCN1CCOCC1 (stereo not shown),-4.66
10,O=C(Nc1ccc(Br)cc1)c1cc([N+](=O)[O-])cc([N+](=O)[O-])c1,14.1
11,CC1(C)Cc2ccccc2C(CSc2ccccc2C(=O)O)=N1,17.3
12,COc1cc2c(cc1OC)-c1c3c(cc4c1[C@@H](C2)N(C)CC4)OCO3,2.56
13,Cc1cccc(NC(=O)CSCC(=O)Nc2ccc(S(=O)(=O)N3CCCC3)cc2)c1,2.76
14,N#CC(C(=O)Nc1ccc(Cl)c(Cl)c1)=C1Nc2ccccc2N1,-4.9
15,CCOC(=O)N1CCC(Nc2c(Nc3ccc(C)c(C)c3)c(=O)c2=O)CC1,-0.493
16,CCOc1ccccc1NS(=O)(=O)c1csc(C(N)=O)c1,13.3
17,O=C(c1cccc(S(=O)(=O)N2CCN(c3ccccc3)CC2)c1)N1CC=C(c2ccccc2)CC1,13.8
18,Cc1cc(C(=O)N/N=C/c2ccc([N+](=O)[O-])cc2)c2ccccc2n1,11.5
19,O=C(Nc1oc2ccc(Cl)cc2c(=O)c1-c1ccc(F)cc1)c1ccco1,9.1
20,CCOC(=O)COc1cccc2c(=O)n(CC(=O)NCCc3ccccc3)ccc12,8.91
21,NC(=O)C(Cc1ccccc1)NS(=O)(=O)c1ccc(N2CCCC2=O)cc1 (stereo not shown),2.42
22,Cc1ccc(S(=O)(=O)NCC2CCC(C(=O)NC3CCCCC3)CC2)cc1 (stereo not shown),13.1

row,Structure (SMILES),"hERG current change (%, negative = inhibition) at 1uM [%]"
1,COc1ccc(OC)c(-c2c(C#N)c(N)nc3c2c(=O)nc2sccn23)c1,12.7
2,Cc1cc(N(CC(=O)NC2CC2)S(C)(=O)=O)ccc1Br,12.5
3,CC1CCN(C(=O)CC2C(=O)Nc3c2c(=O)n(C)c(=O)n3Cc2ccccc2)CC1 (stereo not shown),5.67
4,CCCCn1c(N)c(N(CCC(C)C)C(=O)C2CCCN(C(=O)c3ccc(Cl)cc3)C2)c(=O)[nH]c1=O (stereo not shown),7.62
5,CCOC(=O)C1CCCN(C(=O)c2ccc(Cl)c(S(=O)(=O)N3CCCCCC3)c2)C1 (stereo not shown),-27.5
6,C[C@@H](C(=O)Nc1ccc2ccccc2c1)[C@@H]1C[C@@]1(C)[C@@H](NC(=O)c1ccccc1)c1ccccc1,-5.33
7,COc1ccc(CCn2c([O-])cc3nn(-c4nc5ccccc5s4)c(=O)c-3c2C)cc1,12
8,COc1cccc(C(=O)Oc2ccc(/C=N/Nc3ccc(C(=O)O)cc3)cc2OC)c1,11.8
9,CCCC(=O)Nc1ccc(N2CCCCC2)cc1,3.34
10,O=C(Nc1ccc(O)cc1)C1CCCN1S(=O)(=O)c1ccc(F)cc1 (stereo not shown),6.47
11,COc1ccc(NC(=O)c2ccc(CNc3c(NC4CCCCC4)c(=O)c3=O)cc2)cc1OC,-8.27
12,O=C(Cc1cccs1)N1CCN=C1SCc1ccc(Br)cc1,6.45
13,O=C(CCCN1C(=O)c2cccc3cccc(c23)C1=O)N1CCN(c2ccccn2)CC1,-3.45
14,CCc1cc2c(=O)c(-c3nc4ccccc4n3C)c(COCC(=O)O)oc2cc1O,11.9
15,O=C(COc1ccc(C2SCCS2)cc1)Nc1ccc(Cl)cc1,0.735
16,CC(=O)NN1C(=O)c2ccc(Oc3cccc([N+](=O)[O-])c3)cc2C1=O,-2.94
17,CCN(CC)S(=O)(=O)c1ccc(N(C)C)c(NC(=O)C2CCCC2)c1,2.32
18,CSCC[C@H](NC(=O)OC(C)(C)C)c1nnc(SCC=C(C)C)o1,2.36
19,CCN1CCC2(CC1)N=C(c1ccc(F)cc1)C(=S)N2C(=O)c1ccc(C(C)(C)C)cc1,4.27

# From PMC4336329 (PLoS ONE, 2015)
